Here are results for 101 compounds from ChEMBL document CHEMBL1156829.

SMILES strings stand for the structures. Whole data set: some 5,400 compounds, median “IFI” near 2, cut for the highest 2% near 22. The list shows a part of the results.

The nature of this experiment: NOVARTIS: Inhibition Frequency Index (IFI) - the number of HTS assays where a compound showed > 50% inhibition/induction, expressed as a percentage of the number of assays in which the compound was tested. It is filed as functional.
Regarding `Oc1ccc(-c2ccnc3cc(Cl)ccc23)cc1CNCC1(O)CCCCC1`, the IFI is 2.59%.
The figure for `CCCn1nc(NS(C)(=O)=O)c2cc3cccc(C)c3nc21` is 0%.
Regarding `CCOC(=O)C1=C(C)NC2=C(C(=O)C(C(=O)OCC)C(c3ccccc3OC)C2)C1c1cc(OC)c(OC)c(OC)c1` (stereo unspecified), the IFI was determined as 4.65%.
In the case of `COc1cc(NC(C)CCCN(Cc2ccc(Cl)cc2)C(=O)Nc2ccc(Br)cc2)c2ncccc2c1` (stereo unspecified), the IFI stood at 3.74%.
As for `Oc1ccc(-c2ccccc2)cc1CNCCc1ccc(F)cc1`, the IFI came out at 3.42%.
Under `CC(=O)N1c2ccc(C)cc2C(C)(c2ccccc2)CC1(C)C` (stereo unspecified) stands 0%; under `CCCSCCCNC(=O)c1oc2c(c1C)-c1[nH]ncc1CC2`, 0%.
In turn, `O=C(CSc1nc(-c2ccccc2Cl)ns1)Nc1ccc2c(c1)OCCO2` displayed an IFI of 0%.
Under `CC1(C)C2CCC1(C)C(OCC[N+]1(Cc3ccccc3)CCCC1)C2` (stereo unspecified) stands 9.62%.
The figure for `O=C1c2ccc3c4c(ccc(c24)C(=O)N1CCCCO)C(=O)N(CCCCO)C3=O` is 11.3%.
For `COc1cc(OC)c(Br)c(-n2c(C(C)N(CCC(C)C)C(=O)c3ccccc3C)nc3ccccc3c2=O)c1` (stereo unspecified), the IFI is 2.8%.
Under `COc1cccc(-c2ccc(O)c(CN(C)CCc3ccc(OC)c(OC)c3)c2)n1` stands 2.56%; under `CC(Nc1cc(C)ccn1)=C(C#N)C#N`, 7.69%.
The figure for `Cc1ccnc(NC(c2cccc(Cl)c2Cl)c2ccc3cccnc3c2O)c1` (stereo unspecified) is 7.69%.
The figure for `O=C(NC(Cc1ccccc1)c1nnc(SCc2ccc(F)cc2)n1-c1ccc(Cl)cc1Cl)C1CCCCC1` (stereo unspecified) is 2.08%; for `COc1ccc(-c2ccc3c(N)c(C(=O)NCCc4ccccc4)sc3n2)cc1OC` it is 7.27%.
`COc1cc(/C=C2/SC(=Nc3ccccc3)NC2=O)ccc1OC(=O)c1ccccc1` showed an IFI of 1.14%.
Regarding `COc1cccc(-c2cncc(-c3cncc(OC)c3)n2)c1`, the IFI is 0%.
The figure for `Cc1cc(C)n(-c2ccc(NC(=O)C3CCN(Cc4cnc(C)s4)CC3)cc2)n1` is 0%; for `COc1ccc(C(NC(=O)COc2ccccc2)c2cc(Cl)c3cccnc3c2O)cc1OC` (stereo unspecified) it is 12.5%.
The figure for `C=Cc1cc2ccccc2c2cc3c(cc12)C[N+](C)(C)C3` is 0%.
Consider `CCn1ccnc1CC1COc2ccccc2O1` (stereo unspecified), for which the IFI worked out at 1.18%.
The figure for `COc1ccc2nc(C)cc(Nc3cccc(Cl)c3)c2c1` is 3.26%.
The figure for `COc1ccc(C(c2ccc(N(C)C)cc2)c2ccc(N(C)C)cc2)cc1` is 13.6%; for `CCN(CC)CCN1C(=O)c2ccccc2NC1c1ccc(Cl)cc1` (stereo unspecified) it is 3.66%; for `Cc1ccc(-n2c(C)cc(/C=C3\SC(=Nc4ccc(Cl)cc4)NC3=O)c2C)cc1` it is 5.81%.
The figure for `CC[n+]1c(/C=C/c2ccc(C)cc2)ccc2ccccc21` is 11.4%; for `CCCCCCCCCC(=O)N(C)CCCNc1ccnc2cc(Cl)ccc12` it is 3.7%; for `CC1CN(C2CC(=O)N(c3ccccc3)C2=O)CC(C)O1` (stereo unspecified) it is 0%.
Compound `Cc1ccc(OCC(=O)Nc2cccc(C(=O)O)c2)c(Br)c1` yielded an IFI of 7.69%.
Under `CON(C)C(=O)c1cccc2ccccc12` stands 3.25%; under `CCCCN(CC(=O)Nc1cc(C(C)(C)C)nn1-c1ccc(Cl)cc1)C(=O)c1ccc(OC)cc1`, 1.92%; under `O=C(COC(c1cccs1)c1cccnc1Cl)N1CCN(C(=O)Nc2ccccc2)CC1` (stereo unspecified), 0.971%.
`O=C(c1cc2cc(Br)ccc2o1)N1CCc2c([nH]c3ccccc23)C1c1ccc(Cl)cc1` (stereo unspecified) displayed an IFI of 0%.
The figure for `OC1(c2ccc(Br)cc2)CCN(C2CCN(Cc3ccccc3)CC2)CC1` is 1.57%; for `COc1ccc(OC)c(C2CC(=O)N3CN(Cc4ccccc4)CSC3=C2C#N)c1` (stereo unspecified) it is 0%; for `O=C1C2C(C(=O)N1c1ccccc1F)C1(c3ccccc3)C(=O)C2(c2ccccc2)C(c2ccccc2)=C1c1ccccc1` (stereo unspecified) it is 0%.
Under `COc1cc(NC(C)CCCN(Cc2ccc(N(C)C)cc2)S(=O)(=O)c2c(C)cc(C)cc2C)c2ncccc2c1` (stereo unspecified) stands 2.75%.
The figure for `CCCCCCN(C(=O)c1ccc2ccccc2c1)C(CC)c1nc2ccccc2c(=O)n1-c1ccc(F)cc1` (stereo unspecified) is 2.94%.
As to `CCN1CCN(c2cc(C)c3cc(NC(=O)/C=C/c4cc(OC)ccc4OC)ccc3n2)CC1`, the IFI came out at 8.33%.
The figure for `O=C1N(Cc2cc3ccccc3s2)CC2CN(Cc3ccccc3)CCN12` (stereo unspecified) is 4.29%.
With `O=C(NCc1ccccc1)c1cccc2c(Br)cccc12`, the IFI was 3.92%.
Under `Cc1ccc(-c2cc(-c3ccccc3)c(C#N)c(SCC(O)C[S+]([O-])Cc3ccccc3)n2)cc1` (stereo unspecified) stands 0%.
Under `Cc1ccc2nc(C)cc(NCCN(C)C)c2c1` stands 4.71%; under `CCC(=O)Nc1ccc2nc(SCC(=O)Nc3ccc(C(C)=O)cc3)sc2c1`, 2.33%; under `N#C/C(=C\c1ccc(Sc2ccccc2)o1)c1nc2ccccc2[nH]1`, 6.74%.
Under `CCCSc1nc(N)c(NC(=O)c2ccco2)c(=O)[nH]1` stands 0%.
`CCCCc1ccc(C(=O)N(CCc2ccccc2)C(CC)c2nc3ccccc3c(=O)n2-c2ccccc2OC)cc1` (stereo unspecified) returned an IFI of 5.77%.
In the case of `COc1ccc(C2=C(Nc3ccc(C)c(C)c3)c3ccccc3C2=O)cc1`, the IFI amounted to 0%.
Compound `COc1cc(OC)cc(-n2c(=O)c3sccc3n(CC(=O)c3ccc(F)cc3)c2=O)c1` yielded an IFI of 1.96%.
Consider `CN(CCCNc1ccnc2cc(Cl)ccc12)S(=O)(=O)c1cc(Cl)ccc1Cl`, for which the IFI came out at 7.41%.
Under `COc1ccc(C2(Cc3ccccc3)NC(=O)NC2=O)cc1` (stereo unspecified) stands 0%; under `CC(=O)N(C1=C(N2CCOCC2)C(=O)c2ccccc2C1=O)c1ccc(F)c(F)c1`, 0%.
The compound `O=C(NCCCCNc1ccnc2cc(Cl)ccc12)c1cccc(Br)c1` had an IFI of 0.952%.
The figure for `O=C(Nc1ccc(NC(=O)Nc2ccc(C3=NCCN3)cc2)cc1)Nc1ccc(C2=NCCN2)cc1` is 0.909%; for `COc1ccc(OC)c(C=NNC(=O)Cc2cc(O)n[nH]2)c1` it is 0%; for `COC(=O)c1c(S(=O)(=O)N2CCN(C)CC2)sc2c1CCN(CCCc1ccccc1)C2` it is 1.96%.
The figure for `CC1=C2C(=O)c3ccccc3C2NC(=O)N1` (stereo unspecified) is 1.32%.
`CN(CCCNc1nc2ccccc2c2nc(-c3cccnc3)nn12)Cc1ccccc1` had an IFI of 0%.
For `Cc1ccc(-c2ccc(C#N)c(OCC(=O)NCCc3ccccc3)n2)c(C)c1`, the IFI worked out at 0%.
For the compound `CCCN(CCC)[P+](CCC)(c1ccc([P+](CCC)(N(CCC)CCC)N(CCC)CCC)cc1)N(CCC)CCC`, the IFI was determined as 3.7%.
As to `Clc1ccc(CNCCCn2ccnc2)cc1Cl`, the IFI was found to be 0.935%.
Under `CCOC(=O)c1[nH]c2ccccc2c1N=NN(C)C` stands 1.36%; under `Cc1cc(NC(=O)c2ccc(S(=O)(=O)N(Cc3ccccc3)C(C)C)cc2)no1`, 2.78%; under `Nc1nc(Nc2cccc(Cl)c2)n[nH]1`, 1.07%.
The figure for `Oc1ccc(-c2cccnc2)cc1CNCC1CC2C=CC1C21CC1` (stereo unspecified) is 1.7%; for `CCCCCCN(C(=O)c1ccc2ccccc2c1)C(CC)c1nc2ccccc2c(=O)n1-c1ccccc1OC` (stereo unspecified) it is 1.89%.
The figure for `CCOC(=O)C1=CN(c2cc(C)ccc2C)C=C(C(=O)OCC)C1c1ccccc1OCC` is 2.35%.
For `FC(F)(F)c1cccc(NC(=S)N2CCCC2c2ccccc2Cl)c1` (stereo unspecified), the IFI is 3.64%.
As for `CCOC(=O)CCC(=O)Oc1ccccc1-c1nc2ccccn2c1NC(C)(C)CC(C)(C)C`, the IFI came out at 2.83%.
The figure for `CCOC(=O)c1c(NC(=O)Cc2ccc([N+](=O)[O-])cc2)sc2c1CCCC2` is 0%.
The figure for `NCCCCCCNC(=S)Nc1ccccc1` is 0%; for `CC(C)C[C@@H]1NC(=O)[C@@H](CC(C)C)NC(=O)[C@H](C(C)C)NC(=O)[C@H]2CSSC[C@@H](NC1=O)C(=O)N2` it is 25.9%; for `O=C(NN=Cc1ccc(O)cc1O)c1ccncc1` it is 2.73%.
In turn, `CCN1/C(=C/C=C/c2sc3ccccc3[n+]2CC)Sc2ccccc21` displayed an IFI of 21.7%.
The figure for `O=C(c1cnn(-c2ccccc2)c1C(F)(F)F)N1CCN(c2ccnc3cc(Cl)ccc23)CC1` is 6.45%; for `Cc1ccc(-c2c3c(nc4sc(C(=O)Nc5cccc(C)c5)c(N)c24)CCC3)cc1` it is 4.71%.
The figure for `Cc1oc2c(c1C(=O)NCCCn1ccnc1)C(=O)c1ccccc1C2=O` is 24.3%.
Under `CC1(C)C=C(C23C=CC(C2)C2C(=C4CC(C)(C)NC(C)(C)C4)C=CC23)CC(C)(C)N1` (stereo unspecified) stands 6.15%; under `CCN(CC)CCCNC(=S)N(Cc1ccccc1)Cc1cc2cc(C)c(Cl)cc2[nH]c1=O`, 16.4%; under `CC1CCN(CCCNc2ccc(C(=O)Nc3ccc(C(F)(F)F)cc3)cc2[N+](=O)[O-])CC1`, 0%.
The compound `CCCCN(C)CCCNC(=O)c1ccc(Cl)c(NC(=O)Nc2ccc(Cl)c(Cl)c2)c1` displayed an IFI of 2.94%.
As to `OCCNc1nc(Nc2ccc(Cl)c(Cl)c2)nc2ccccc12`, the IFI amounted to 0%.
The figure for `CCc1ccc(-n2nnc(C(=O)Nc3ccccc3Cl)c2C)cc1` is 2.86%.
Turning to `CC(=O)N1CCC(N(C(=O)Nc2c(F)cccc2F)C(C)C)CC1`, the IFI worked out at 0%.
Under `CSC1=NC(=Nc2ccccc2C)C2(CCC(C(C)(C)C)CC2)N1c1ccc(O)cc1` (stereo unspecified) stands 0%; under `Cc1sc2c(c1C)CN(Cc1ccco1)CN2C(=O)c1ccco1`, 0%.
As to `COc1ccc(Cn2c(-c3ccc(Cl)cc3)c[n+]3ccccc23)cc1`, the IFI turned out to be 0%.
The figure for `O=C1NN=C2C1=NC1(CCCCC1)Cc1ccccc12` is 8.33%.
Take `CN(CCCNc1ccnc2cc(Cl)ccc12)C(=O)c1ccc(Cl)c([N+](=O)[O-])c1`: the IFI came to 1.87%.
The figure for `O=C(Nc1ccc(CC2=NCCCN2)cc1)c1ccc(C(=O)Nc2ccc(CC3=NCCCN3)cc2)cc1` is 1.77%; for `CN(C)c1cc(NC(=O)Nc2ccccc2)c2ccccc2n1` it is 2.26%.
The figure for `CCC(=O)Nc1cc(NC(=O)CSc2nc(C)c(CC)c(O)n2)ccc1C` is 5.46%; for `CCOc1ccc2ncc(S(=O)(=O)c3ccc(OC)cc3)c(N3CCN(C)CC3)c2c1` it is 0%; for `Cc1ccc(-c2nn(CC(=O)Nc3cccc(C)c3)c(=O)c3ccccc23)cc1` it is 1.18%.
The figure for `COc1cc2c(cc1OC)C(CCCCCl)=NC(C)(C)C2` is 0%; for `COc1ccc2nc(C)cc(Nc3cccc(O)c3)c2c1` it is 0%; for `CN(C)c1ccc(Nc2nc(NCC3CCCO3)c3ccccc3n2)cc1` (stereo unspecified) it is 7.69%.
As to `CCCCCN(C(=O)c1ccc2ccccc2c1)C(CC)c1nc2ccccc2c(=O)n1-c1ccc(Cl)cc1C` (stereo unspecified), the IFI amounted to 1.89%.
For `O=C1NCCN1C(=O)C(c1ccccc1)c1ccccc1`, the IFI came out at 4.54%.
With `CCCCCCCCCCOC(=O)Cn1c(C)[n+](C)c2ccccc21`, the IFI is 1.53%.
